Our source for the binding signal values is publication PMC7819943, “Rice protein-binding microarrays: a tool to detect cis-acting elements near promoter regions in rice”.

The other results are listed elsewhere or left out.

In this assay the target is T1, OsWOX13 (Oryza sativa, UniProt Q5QMM3 1-267).
T1 sequence: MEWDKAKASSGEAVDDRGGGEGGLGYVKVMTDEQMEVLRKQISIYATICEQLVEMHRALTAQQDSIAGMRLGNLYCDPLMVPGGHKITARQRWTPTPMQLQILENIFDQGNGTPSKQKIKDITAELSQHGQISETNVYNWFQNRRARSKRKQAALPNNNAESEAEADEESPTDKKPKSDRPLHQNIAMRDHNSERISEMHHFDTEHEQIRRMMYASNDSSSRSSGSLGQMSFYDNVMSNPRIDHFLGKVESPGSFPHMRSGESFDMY
As to the kind of experiment: protein-binding microarray (RPBM); PBS, 2% BSA, 51.3 ng/ul salmon testes DNA, 50 uM zinc acetate, 200 nM TF, 25 C, 1 h; high values mean tight binding. The settings on record: protein: recombinant; tags: N-terminal polyhistidine and DsRed monomer fusion (pET32a); label: CyDye5-dUTP incorporated in the synthesized complementary strand; 3' TTTTT single-stranded linker to array surface; dsDNA, one strand shown. A digest of the protocol:
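The binding signal is fluorescence intensity per array feature (arbitrary units). Readings came from an Axon 4000B scanner after a washed, 2% BSA-blocked, double-stranded custom Agilent array had been incubated for 1 h at 25 °C with 200 nM protein and 50 µM zinc acetate. The protein was a Ni–NTA-purified transcription factor fused N-terminally to polyhistidine and DsRed, expressed in E. coli BL21-CodonPlus.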
For “GCCCAATTATTACTCCTCCACTACTACTCCTCCACCCGCGCGGAGTCACCTAGTGCAG”, the binding signal is 5920 fluorescence intensity (a.u.).

As to “CTTGTTGTAATGGGAAACGTGATTACAGATAGCGGGCCCACGGAGTCACCTAGTGCAG”, the binding signal was 10300 fluorescence intensity (a.u.).

As for “CTTAACGGCCCATTTATCTTGTCTCTCTGGCCCACCTGCACGGAGTCACCTAGTGCAG”, the binding signal is 4020 fluorescence intensity (a.u.).

For the sequence “GGGGAGGATTGGAACTTTGCTACTTTCCAAATTTCCCCTTCGGAGTCACCTAGTGCAG”, the binding signal is 4740 fluorescence intensity (a.u.).

Consider “CTTGATAATTACTCTTACGTCCCTCACCCTATGTTCCTGTCGGAGTCACCTAGTGCAG”, for which the binding signal is 24100 fluorescence intensity (a.u.).

In the case of “GGGATTGAAATCCTCCAGTTTTCCCACAAATTTCGTACAACGGAGTCACCTAGTGCAG”, the binding signal was 18600 fluorescence intensity (a.u.).

Consider “CTAACCAAGATTAATTTCTATTGGTACAATGGCATGTAATCGGAGTCACCTAGTGCAG”, for which the binding signal was 4210 fluorescence intensity (a.u.).

As for “GGCTTCCTTAATTGTACATGTCTCTCTTCATTCTGCTGCACGGAGTCACCTAGTGCAG”, the binding signal is 5930 fluorescence intensity (a.u.).

On to “ATAGATTTAGAAATAAGTGTTGACATAAACATTTAGGTATCGGAGTCACCTAGTGCAG”, for which the binding signal was 4640 fluorescence intensity (a.u.).

Consider “ATTTTACATTTTCTGATTGCTTTACTCGGCCATCACATGGCGGAGTCACCTAGTGCAG”, for which the binding signal was 23100 fluorescence intensity (a.u.).

On to “GGAGATAATGGACTGTTCATCATTTCATTGCTATGAAGGGCGGAGTCACCTAGTGCAG”, for which the binding signal is 17400 fluorescence intensity (a.u.).

With “CAAAATGACAATAATTTGTATGTAAGCAGAAGACAGAAAGCGGAGTCACCTAGTGCAG”, the binding signal was 22200 fluorescence intensity (a.u.).

For the sequence “TATTAATACTCAATTAATCATGCGCTAATGAATCGCTCCTCGGAGTCACCTAGTGCAG”, the binding signal was 19300 fluorescence intensity (a.u.).

Take “TCATAGCAATTAAAATTAACACCATATTTGTTCCGGAGAACGGAGTCACCTAGTGCAG”: the binding signal is 4500 fluorescence intensity (a.u.).

As to “TCCGTGTGATACTATCAAATTAGATTAGAAACACAGCGTGCGGAGTCACCTAGTGCAG”, the binding signal is 8520 fluorescence intensity (a.u.).

As to “CTTCAAATTATCTATATTTAATTTAATAACACATTTATATCGGAGTCACCTAGTGCAG”, the binding signal was 18900 fluorescence intensity (a.u.).

With “TTGCTTGACATGAAATCAAGTACACTTGCAAAGCACACACCGGAGTCACCTAGTGCAG”, the binding signal is 4290 fluorescence intensity (a.u.).

Consider “GCTTTGGGGCTAATTTGATTTCAAGACAATTTGGTATTAGCGGAGTCACCTAGTGCAG”, for which the binding signal was 4020 fluorescence intensity (a.u.).

For “AAATGATTAAAGGAAAATAACTTGTACGGTCAGGGAGGCACGGAGTCACCTAGTGCAG”, the binding signal was 11400 fluorescence intensity (a.u.).

For the sequence “TCTGTATGGGTGATTTGCCTAAACAAGACAAGCAAAAGTGCGGAGTCACCTAGTGCAG”, the binding signal was 4480 fluorescence intensity (a.u.).

“AAAATTTAAATTTATAACTTTAATTTTAGAGTTTATGTTTCGGAGTCACCTAGTGCAG”: the binding signal was 25400 fluorescence intensity (a.u.).

“GATGATTACACTGTTAATCCGCTTTTAATCTCTGCCATTGCGGAGTCACCTAGTGCAG”: the binding signal is 34200 fluorescence intensity (a.u.).

On to “GAAAATTATTAAATAGTAATCATAGGACGAAAACTTTTGTCGGAGTCACCTAGTGCAG”, for which the binding signal is 16300 fluorescence intensity (a.u.).

Consider “AGCACTAATTTTCATGAAGAGCTGTGACTATAGTTATACACGGAGTCACCTAGTGCAG”, for which the binding signal is 5360 fluorescence intensity (a.u.).

In the case of “GGCGCACTGATTGTTCATGATTGATGCAGTGATCCGGGCACGGAGTCACCTAGTGCAG”, the binding signal is 59600 fluorescence intensity (a.u.).

As to “AACAAGTGTTAACACAGCCTAATTAGCCCCACAAAGGTTCCGGAGTCACCTAGTGCAG”, the binding signal is 7030 fluorescence intensity (a.u.).

With “AGTAGATTGCAAATCGATTTTCGTTTTGGAGACATCATGGCGGAGTCACCTAGTGCAG”, the binding signal is 19600 fluorescence intensity (a.u.).

As for “TGCCGTGGGATGGGGTTGCGGGAGGAGGAGGGTGCTACTACGGAGTCACCTAGTGCAG”, the binding signal was 4050 fluorescence intensity (a.u.).

Turning to “AACAATATTGATTTCTTGAACACCAGGTAGATATTATTGACGGAGTCACCTAGTGCAG”, the binding signal is 7940 fluorescence intensity (a.u.).

For “CATAATTGCTTACCCCATGAAGCTGCTGCACATCTATTATCGGAGTCACCTAGTGCAG”, the binding signal is 29900 fluorescence intensity (a.u.).

With “GAAAATGGATTTAAATCCGGCCACTACATTTGAACCGGAACGGAGTCACCTAGTGCAG”, the binding signal was 3340 fluorescence intensity (a.u.).

“ATGCATGTTAATTAGTCTGTCACTGATCACTTCATCCCATCGGAGTCACCTAGTGCAG”: the binding signal is 23300 fluorescence intensity (a.u.).

For “AACTAAACACACATTGACTGTAGCTTCAGTTGAAGAACCGCGGAGTCACCTAGTGCAG”, the binding signal was 5680 fluorescence intensity (a.u.).

With “TAAACAATATATACCAATTTAATCAACGGTCGAGAAATACCGGAGTCACCTAGTGCAG”, the binding signal was 3150 fluorescence intensity (a.u.).

Consider “ATCACCTCTGCATTGATTGGCTCGAGGTATTAAGGGTTATCGGAGTCACCTAGTGCAG”, for which the binding signal was 16300 fluorescence intensity (a.u.).

As to “TCTAATAGAATGATTAGTTGAATATAAACTTATCTTTTAACGGAGTCACCTAGTGCAG”, the binding signal is 8710 fluorescence intensity (a.u.).

Take “TGGGAACAGACATTAATTATGCATAACATGTTTATTGATACGGAGTCACCTAGTGCAG”: the binding signal is 12600 fluorescence intensity (a.u.).

On to “TCTTTAAAATTTTATAACTGGTTTATAGGTTGCTATTGTACGGAGTCACCTAGTGCAG”, for which the binding signal was 5270 fluorescence intensity (a.u.).

With “TGATCTGTTACATGTAAATTGTAGTGGACTGATTTAGGCCCGGAGTCACCTAGTGCAG”, the binding signal was 5900 fluorescence intensity (a.u.).

As for “ATCACGTCATCATTAGTGCTAATCACATGGTTAGCGACGGCGGAGTCACCTAGTGCAG”, the binding signal was 13900 fluorescence intensity (a.u.).

“GCGTCTAATCACCACGATTAAGCTCGTCGTAATTACCATCCGGAGTCACCTAGTGCAG”: the binding signal is 13700 fluorescence intensity (a.u.).

“TAGCTTGATTAGCTTAGCTTAAGTAGACAAGCCACTTTAGCGGAGTCACCTAGTGCAG”: the binding signal was 31300 fluorescence intensity (a.u.).
